In data set [1] the test system is N=C(N)NCC(F)(F)C[C@H](N)C(=O)O. The experiment in a line: (§1) Activity of iNOS assessed as oxidation of oxyhemoglobin to methemoglobin by indirect spectral assay.
The test system of data set [2] is N=C(NO)NCCC[C@H](N)C(=O)O. Described as §1.
The subject of data set [3] is N/C(=N\O)NCC(F)(F)C[C@H](N)C(=O)O. The data set is described as §1.
Another data set relates to N=C(N)NCCC[C@H](N)C(=O)O. Described as §1.

By Km is commonly meant the substrate concentration at which the rate is half of its maximum. For “Nitric oxide synthase, inducible (Homo sapiens) (letters omitted)”, the Km worked out at 814 µM in data set [1], 52 µM in data set [2], 328 µM in data set [3] and 8.6 µM in the data set with N=C(N)NCCC[C@H](N)C(=O)O.

For the origin of these results see ChEMBL document CHEMBL1153920, “4,4-Difluorinated analogues of l-arginine and N(G)-hydroxy-l-arginine as mechanistic probes for nitric oxide synthase” (Bioorg Med Chem Lett, 2009).
